Results on 52 compounds are retold here after PMC4336329 (PLoS ONE, 2015).

In all, about 310,000 compounds went through this assay and about 14,000 (4.5%) showed an effect of 50% or more. Effects have a minus sign here. Some of the results follow.
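Also: peak tail current of the secondary pulse compared with the same well before compound.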

The target in the assay is human ether-à-go-go-related gene (hERG) potassium channel (human, UniProt Q12809). The assay can be described thus: primary screen, population patch clamp on CHO cells stably expressing hERG.
human ether-à-go-go-related gene (hERG) potassium channel, sequence (Q12809 whole entry, looked up): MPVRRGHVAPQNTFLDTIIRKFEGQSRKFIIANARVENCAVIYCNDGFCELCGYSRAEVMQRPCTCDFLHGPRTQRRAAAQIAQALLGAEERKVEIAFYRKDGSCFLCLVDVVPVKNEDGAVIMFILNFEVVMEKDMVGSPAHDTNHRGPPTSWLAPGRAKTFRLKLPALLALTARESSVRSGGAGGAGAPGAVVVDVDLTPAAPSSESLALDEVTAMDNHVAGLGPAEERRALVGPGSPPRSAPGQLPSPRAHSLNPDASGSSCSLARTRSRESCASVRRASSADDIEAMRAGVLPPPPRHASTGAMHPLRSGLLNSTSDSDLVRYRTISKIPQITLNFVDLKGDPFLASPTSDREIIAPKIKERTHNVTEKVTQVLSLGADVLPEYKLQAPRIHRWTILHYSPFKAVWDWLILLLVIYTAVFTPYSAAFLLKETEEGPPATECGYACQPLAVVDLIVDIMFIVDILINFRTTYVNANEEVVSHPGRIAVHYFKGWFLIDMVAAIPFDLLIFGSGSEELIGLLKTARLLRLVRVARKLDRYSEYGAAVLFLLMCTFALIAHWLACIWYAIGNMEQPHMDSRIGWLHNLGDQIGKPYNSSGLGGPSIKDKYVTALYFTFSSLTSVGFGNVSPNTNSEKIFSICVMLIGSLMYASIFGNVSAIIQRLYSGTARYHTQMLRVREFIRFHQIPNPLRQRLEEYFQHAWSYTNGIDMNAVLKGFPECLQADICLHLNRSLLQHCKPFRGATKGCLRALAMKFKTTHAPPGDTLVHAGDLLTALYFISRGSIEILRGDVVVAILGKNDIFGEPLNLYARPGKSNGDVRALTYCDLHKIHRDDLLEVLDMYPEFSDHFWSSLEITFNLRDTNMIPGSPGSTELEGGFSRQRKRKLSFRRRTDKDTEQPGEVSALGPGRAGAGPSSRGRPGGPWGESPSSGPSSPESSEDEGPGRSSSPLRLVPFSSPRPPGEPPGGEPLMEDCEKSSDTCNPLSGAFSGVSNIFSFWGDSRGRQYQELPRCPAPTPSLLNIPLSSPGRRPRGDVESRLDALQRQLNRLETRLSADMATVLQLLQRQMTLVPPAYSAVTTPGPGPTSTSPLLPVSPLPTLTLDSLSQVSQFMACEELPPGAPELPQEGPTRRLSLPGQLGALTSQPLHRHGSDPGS
On to `CCN1C(=O)[C@@H]2[C@@H](c3ccc(-c4ccc5c(c4)OCO5)c(OC)c3)N3CCCC[C@@]3(C(=O)OC)[C@@H]2C1=O.O=C(O)C(F)(F)F`, for which the “hERG current change (%, negative = inhibition) at 10uM” value came out at 0.936%. Next, `Cc1nn(-c2ccc(N3CCOCC3)nn2)c(C)c1CCC(=O)NCc1ccccc1`: 0.347%; `CCC(C)NC(=O)c1cn(CC)c2ccc(S(=O)(=O)N3CCCCCC3)cc2c1=O` (stereo not shown): -17.2%; `COCCN(C(=O)CSc1n[nH]c(-c2ccccc2)n1)c1c(N)n(Cc2ccccc2)c(=O)[nH]c1=O`: -16.9%. Under `O=C(CCNC(=O)c1ccccc1Cl)Nc1ccc(S(=O)(=O)Nc2ncccn2)cc1` stands 5.89%.

As for `COc1ccc(SC[C@H](Cc2ccccc2)N2CC[C@@H](O)CCC2=O)cc1`, the “hERG current change (%, negative = inhibition) at 10uM” value is recorded as -8.62%. Next, `C=CCC1(Cl)C(=O)C(Cl)=C(N2CCN(C)CC2)C1(OC)OC` (stereo not shown): 24.9%; `COc1ccc(S(=O)(=O)N2CCCOC2CNC(=O)C(=O)NCc2ccco2)cc1` (stereo not shown): -22%; `Cc1cccc(NS(=O)(=O)c2cccc(C(=O)NNC(=O)c3ccccc3O)c2)c1`: 8.52%.

Regarding `COCC(C)NC(=O)CSc1ncnc2sc(-c3ccccc3)cc12` (stereo not shown), the “hERG current change (%, negative = inhibition) at 10uM” value is -10.1%. Next, `COC(=O)c1c(C)oc2cc(Br)c(OCC(=O)C(C)(C)C)cc12`: 6.12%; `CC(=O)c1ccc(OC(C)c2nc3ccccc3s2)cc1` (stereo not shown): -15.8%. Next, `C=CCN(C(=O)CCC(=O)Nc1cc(C)on1)C(C(=O)NC1CCCC1)c1ccc(CC)cc1` (stereo not shown): -17.5%; `Nc1ncc(Br)cc1S(=O)(=O)Nc1cc(C(F)(F)F)cc(C(F)(F)F)c1`: 18.9%; `O=C(O)C1Cc2ccccc2CN1C(=O)c1ccccc1Cl` (stereo not shown): 15.4%.

As for `COc1cccc(N2CCN(C3C4CC5CC(C4)CC3C5)CC2)c1` (stereo not shown), the “hERG current change (%, negative = inhibition) at 10uM” value is 2.54%. Next, `Cc1ccc(-n2cnc3c(sc4nc(N5CCOCC5)c5c(c43)CCCC5)c2=O)cc1`: 20.6%; `O=C(c1cc([N+](=O)[O-])ccc1N1CCNCC1)N1CCOCC1`: 4.75%. For the compound `CCOC(=O)C1C(=O)NC(c2ccccc2)=NC1c1ccccc1` (stereo not shown), the “hERG current change (%, negative = inhibition) at 10uM” value came to 8.01%. In the case of `COC(=O)c1cccc(NC(=O)CC2NCCNC2=O)c1` (stereo not shown), the “hERG current change (%, negative = inhibition) at 10uM” value was -17.9%. Next, `Cc1cc(C(=O)N2CCCC(N3CCN(c4cccc(C(F)(F)F)c4)CC3)C2)no1` (stereo not shown): -2.14%.

In the case of `Cc1ccc(Nc2nc(N)nc(CSc3nnc(C)s3)n2)cc1`, the “hERG current change (%, negative = inhibition) at 10uM” value is recorded as -10.1%. Next, `O=C(CN1C(=O)CSc2ccc(S(=O)(=O)N3CCOCC3)cc21)N1CCCCC1`: 15.1%. Under `COc1cnc(-c2cccc(C(F)(F)F)c2)nc1OC` stands 26.6%. Next, `O=C(CSc1ncnc2ccccc12)Nc1ccc2c(c1)OCCO2`: 5.48%; `Cc1cc(C(=O)N2CCCC(CCC(=O)N3CCN(c4ccccn4)CC3)C2)c(C)o1` (stereo not shown): -9.16%; `COc1ccc(NC(=O)COC(=O)c2ccc(-n3nc(C)cc3C)cc2)cc1OC`: 13.1%. Take `CC(Oc1ccccc1)C(=O)N=C1SC2CS(=O)(=O)CC2N1Cc1ccc(F)cc1` (stereo not shown): the “hERG current change (%, negative = inhibition) at 10uM” value is listed as -24.6%. `COc1ccc(-c2nc(SC(CC(=O)NCCN3CCOCC3)c3cccs3)n[nH]2)cc1` (stereo not shown): the “hERG current change (%, negative = inhibition) at 10uM” value is reported as 1.08%. As to `COc1ccc(/C=N\NC(=O)c2ccccc2F)cc1COc1ccc(F)cc1`, the “hERG current change (%, negative = inhibition) at 10uM” value was determined as 27.1%. Next, `Cc1c(C(=O)O)cccc1-n1c(C)cc(/C=N/NC(=O)c2cc3ccccc3o2)c1C`: 13.1%; `N#CC(C#N)=C(N)c1cccnc1`: 27.2%. Take `CCCCC(=O)N1CCN(c2nc3ccc(F)cc3s2)CC1`: the “hERG current change (%, negative = inhibition) at 10uM” value is on record as -65.3%.

In the case of `CN(C)C=O.O=C(COC(=O)c1ccc(S(=O)(=O)N2CCCC2)cc1)Nc1cccnc1Cl`, the “hERG current change (%, negative = inhibition) at 10uM” value was 7.25%. Under `CCO[C@@H]1OC(C(=O)NCc2nc3ccccc3[nH]2)=C[C@H](c2ccccc2)[C@H]1CCCO` stands -25.4%; under `Cc1ccccc1CNC(=O)C(=O)NCCC1CCCCN1S(=O)(=O)c1ccccc1` (stereo not shown), -6.46%; under `CC1CC1C(=O)OCc1cc(=O)n2cc(Br)ccc2n1` (stereo not shown), -16.2%. Next, `CC(=O)Nc1ccc(NC(=O)COC(=O)C2(c3ccc(Cl)cc3)CCCC2)cc1`: 2.64%; `N#CCSc1nnc(COc2ccccc2)n1-c1ccccc1`: -10.7%. Next, `Cc1ccc(S(=O)(=O)c2nc(S(C)(=O)=O)sc2N2CC(C)OC(C)C2)cc1` (stereo not shown): 5.46%; `COC(=O)c1cc(C(=O)Cc2ccccc2)c[nH]1`: -10.8%. As to `CC1CCCCN1S(=O)(=O)Cc1ccccc1Cl` (stereo not shown), the “hERG current change (%, negative = inhibition) at 10uM” value is 6.35%.

`Cc1ccccc1NC(=O)Cc1nc(COC(=O)c2ccc(Cl)c(S(N)(=O)=O)c2)cs1`: the “hERG current change (%, negative = inhibition) at 10uM” value is given as -60.9%. Next, `CCC1(C(=O)OC)NC(c2ccco2)C2C(=O)N(c3ccc(C)cc3)C(=O)C21` (stereo not shown): 9.07%. Next, `COc1ccc(CNC(=O)C/C(C)=N/NC(=O)c2ccc([N+](=O)[O-])cc2Cl)cc1`: -20.2%. For `O=C(O)CCNC(=O)/C(=C/C=C/c1ccccc1)NC(=O)c1ccccc1`, the “hERG current change (%, negative = inhibition) at 10uM” value is 16.6%.

As to `C=CCc1cccc2ccc(=O)oc12`, the “hERG current change (%, negative = inhibition) at 10uM” value is -3.56%. Next, `Cc1nc2ccc(NC(=O)c3cc([N+](=O)[O-])cc([N+](=O)[O-])c3Cl)cc2s1`: 11.4%; `COc1ccc(/C=N/NC(=O)c2cc(-c3cccc(C)c3)nc3ccccc23)cc1O`: 16.6%. Next, `O=C(COc1ncnc2cc([N+](=O)[O-])ccc12)N(CCc1ccccc1)Cc1ccccc1`: 7.35%; `O=C(Nc1ccc(N2CCCCC2)cc1)c1ccccc1`: 15.5%. Next, `Nc1nc(-c2cc(O)ccc2[N+](=O)[O-])cc(-c2ccccc2)c1[N+](=O)[O-]`: 18.1%.
